Out of some 420,000 compounds screened, about 50,000 (12%) were called active. This list was built around the results that the source calls inconclusive (neither active nor inactive); the mix of calls is not that of the screen. The call rests on the fitted dose curve; in most records, active means well fitted inhibition curve with a large enough effect; inconclusive means small, poorly fitted or top-dose-only effect; inactive means flat fitted curve, though single readings scatter. Potencies of inconclusive entries are left out as doubtful fits.
Assay: qHTS for Inhibitors of human tyrosyl-DNA phosphodiesterase 1 (TDP1): qHTS in cells in presence of CPT; further: nearly all actives have a fitted effect of over 55% in size
Settings: chicken DT40 Tdp1-/-;hTDP1 cells + 20 nM CPT, ATP luminescence, 48 h; activity change, negative = growth inhibition: at 46.2 µM (top of the series) unless noted
How it was run: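 Cell growth measured by CellTiter-Glo luminescence after a minimum 48 h, 37 C compound exposure with 20 nM CPT in Tdp1-knockout DT40 cells stably expressing hTDP1, seeded 400/well; qHTS titration format.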
On the % scale 0 is the no-effect control and ±100 the full control effect; potency means the concentration at half of the fitted maximal effect; tags describe the fitted curve by direction and shape.

SMILES | activity change, negative = growth inhibition | Potency
COc1ccc(-c2noc(CCC(=O)N3CCN(c4ccc(C(F)(F)F)cc4)CC3)n2)cc1 | inconclusive: -22.4% [inhibitor] | –
CS(=O)(=O)c1nc(S(=O)(=O)c2ccc(Cl)cc2)c(NCCN2CCOCC2)s1 | inactive: -10.9% | –
COc1ccc(CCN2C(=O)c3[nH]nc(-c4ccccc4O)c3C2c2ccc(O)c(OC)c2)cc1 (centres undefined) | – | inconclusive [inhibitor, single point]
Cc1ccc2c(c1)c1c3n2CCN(C(=O)CN2CCN(C)CC2)C3CCC1 (centres undefined) | – | inconclusive [inhibitor, single point]
CC(C)C[C@H](NC(=O)c1nc[nH]c1C(=O)N1CCNCC1)C(=O)OCc1ccccc1 | – | inconclusive [inhibitor, partial curve, poor fit]
CCOC(=O)C1CCN(c2nc3ccccc3n2CC(=O)c2ccccc2)CC1 | – | inconclusive [inhibitor, partial curve, poor fit]
COc1ccc2oc(C(=O)OCC(=O)N3CC(C)CC(C)C3)c(C)c2c1 (centres undefined) | – | inconclusive [inhibitor, single point]
CCOC(=O)c1cc2occc2n1CC(=O)N1CCCc2ccccc21 | – | inconclusive [inhibitor, single point]
CCc1nc2ccc(C(=O)Nc3cccc(OCC(=O)N(C)C)c3)cn2c1N(C)Cc1ccc(N(C)C)cc1 | – | inconclusive [inhibitor, single point]
Cn1nccc1C(=O)NCc1ccc2c(c1)CCN2C(=O)c1ccc(F)cc1 | – | inconclusive [inhibitor, single point]
COc1ccc(CNC(=O)C[C@@H]2C[C@H]3c4cc(NC(=O)C5CCC5)ccc4O[C@H]3[C@@H](CO)O2)cc1 | inactive: -13% | –
O=C(Nc1ccc(Cl)cc1)N(Cc1cccnc1)Cc1ccco1 | inactive: -1.82% | –
COc1ccccc1NC(C)=O | inactive: -1.18% | –
OCCC1CN(Cc2ccc(Oc3ncccn3)cc2)CCN1C1CCCCC1 (centres undefined) | inactive: 3.92% | –
O=c1cc(N2CCN(c3ccccc3)CC2)[nH]c(=O)n1-c1ccccc1 | inactive: -20.8% | –
COc1ccc(CCN=C(NS(=O)(=O)c2ccc(Cl)cc2)c2ccccc2)cc1 | – | inconclusive [inhibitor, single point]
Cc1nc2ccc(Cl)cc2n1C | inactive: -7.9% | –
COCC(=O)Nc1cc([N+](=O)[O-])ccc1C | – | active: 23.1 µM
CCN(Cc1ccc2c(c1)OCCO2)C(=O)CSc1nc(C)nc2sc(C)c(C)c12 | – | inconclusive [inhibitor, single point]
COc1ccccc1Nc1cc(C(=O)NCCCN(C)c2ccccc2)c2ccccc2n1 | – | inconclusive [inhibitor, single point]
CC(C)N1CCN(Cc2ccc(OC3CCCC3)cc2)CC1CCO (centres undefined) | – | inconclusive [inhibitor, single point]
O=C(Cc1cccs1)Nc1cccc(-c2nc3cc4ccccc4cc3[nH]2)c1 | – | active: 25.9 µM
S=C1NCc2cncnc2N1 | inactive: -0.831% | –
Cc1cccc(NC(=O)C[n+]2ccc(N(C)C)cc2)c1 | – | active: 14.6 µM
Nc1nc(SCC(=O)Nc2ccc(OC(F)(F)F)cc2)[nH]c(=O)c1NC(=O)c1ccc(Br)o1 | inactive: 4.04% | –

SMILES | activity change, negative = growth inhibition | Potency
COc1cccc(CNC(=O)c2ccc(Cn3c(SCc4ccccc4)nc4cccnc43)cc2)c1 | – | active: 8.2 µM
COc1ccccc1-c1nccc(NCc2cccnc2)n1 | inactive: -2.69% | –
CCOC(=O)C1=C(N)n2c(s/c(=C\c3cccs3)c2=O)=C(C(=O)OCC)C1c1cccs1 (centres undefined) | – | active: 4.11 µM
CCCN1CCN(C(=O)CN2C(=O)COc3ccc(S(=O)(=O)N(CC)CC)cc32)CC1 | inactive: -15.1% | –
COc1ccccc1C(=O)NC(CCSC)C(=O)NCCCSc1ccccc1 (centres undefined) | – | inconclusive [inhibitor, single point]
O=C(Nc1ccc2c3c(cccc13)CC2)c1ccc(Br)o1 | – | inconclusive [inhibitor, single point]
FC(F)Oc1ccc(-c2csc(NNC3=NCCCCC3)n2)cc1 | – | active: 4.61 µM
CCN(CC)CCN(Cc1cc2cc3c(cc2[nH]c1=O)OCCO3)C(=O)NC1CCCCC1 | – | inconclusive [inhibitor, single point]
Cc1ccc(S(=O)(=O)c2nc(-c3ccco3)oc2SC(C)c2ccccc2)cc1 (centres undefined) | – | inconclusive [inhibitor, single point]
COc1cc2ccnc(C=NO)c2cc1OC | – | active: 20.6 µM
CCC(=O)N1c2ccc(S(=O)(=O)NCc3cccc(OC)c3)cc2CC1C (centres undefined) | – | inconclusive [inhibitor, single point]
CCNc1nc(CN2CCCCC2)nc2scc(-c3ccccc3)c12 | – | active: 11.6 µM
COc1ccc(CN2C(=O)NC3(CCCCCC3)C2=O)cc1F | – | active: 16.4 µM
CCOC(=O)c1ccc(Oc2cc(C)nc(Cl)n2)cc1 | inactive: 3.68% | –
CCCNC(=S)Nc1ccc(F)cc1F | inactive: -0.753% | –
Cc1ccc(C)c(S(=O)(=O)N2CCN(C(=O)c3n[nH]c(=O)c4ccccc34)CC2)c1 | – | inconclusive [inhibitor, single point]
Cc1nc2ccccc2n1CC(O)COc1ccc(C(=O)O)cc1 (centres undefined) | inactive: -18.2% | –
COc1cc(C(=O)NCCCC2CCCC2)ccc1OC1CCN(C(C)=O)CC1 | – | inconclusive [inhibitor, single point]
CCCCNC(=O)c1nc(C2CCN(S(=O)(=O)c3ccc(F)c(F)c3)CC2)oc1-c1ccccc1 | – | active: 10.3 µM
COC(=O)CNc1nc(-c2ccccc2F)nc2ccccc12 | inactive: -27.6% | –
c1ccc2[nH]c(SCc3cn4ccccc4n3)nc2c1 | inactive: -4.79% | –
CN(CC(=O)Nc1ccccc1Oc1ccccc1)Cc1ccccc1F | – | inconclusive [inhibitor, single point]
CCCCN(CC)CCNC(=O)c1cc2c(-c3ccc(Cl)cc3)nn(C)c2s1 | – | inconclusive [inhibitor, single point]
COc1cc2c(C=O)c3c4c(cc(OC)c(OC)c4c2cc1OC)CCN3C | – | active: 11.9 µM

From PubChem BioAssay AID686979 (National Center for Advancing Translational Sciences (NCATS), 2013)
